Like-named read-outs stand apart in the source and are kept apart here.
System: temperature sensitive mutant of the E1 enzyme (ts20 cells)

Row | Compound | levels of p53 by Western blotting | levels of p53 nuclear staining (indirect immunofluorescence) | nuclear p53 staining in the presence of cycloheximide | nuclear p53 staining when agent is added to cells already at the nonpermissive temperature | relative levels of hsp73 and hsp72 by Western blotting | nuclear p53 staining in the presence of cycloheximide (1 D 39.5° C., then 24 h 39.5° C. with agent plus cycloheximide) | levels of p53 by Western blotting (39.5° C., one day) | relative levels of hsp73 and hsp72 by Western blotting (39.5° C., one day) | levels of p53 nuclear staining (indirect immunofluorescence) (39.5° C., one day, 75 mM TMAO, 0.75 M glycerol)
1 | C[N+](C)(C)[O-] [TMAO, trimethylamine N-oxide] | significantly reduced | significantly reduced | strong nuclear staining of p53 was still observed | diminishment, but not complete abolition of nuclear p53 staining | appeared identical |  |  |  | 
2 | OCC(O)CO [glycerol] |  |  |  |  |  | strong nuclear staining of p53 was still observed | significantly reduced | appeared identical | significantly reduced

— patent US6541195B2, “Correction of genetic defects using chemical chaperones” (The Regents of the University of California, priority 1996, dated 2003)
